# From the supplement of paper PMC8728848
# This is one part of the list.
# Key:
# Assay in all cases: glycan array binding signal (z-score within array); higher = stronger binding
# Conditions in all cases: glycan notation: IUPAC condensed, linker removed
# [1] = biological target: Fuc(a1-2)[GalNAc(a1-3)]Gal(b1-3)GlcNAc(b1-6)GalNAc
# In short: (§1)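 Columns mapping to the same glycan were averaged after glycan names were converted to IUPAC-condensed notation. The data come from 3228 arrays in the Consortium for Functional Glycomics database, limited to those with an available protein sequence. Binding is reported as a within-array Z-score averaged across arrays of one protein sequence and across linkers.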
# [2] = biological target: Fuc(a1-2)[GalNAc(a1-3)]Gal(b1-4)Glc
# In short: as §1
# [3] = biological target: Fuc(a1-2)[GalNAc(a1-3)]Gal(b1-4)GlcNAc
# In short: as §1
# [4] = biological target: Fuc(a1-2)[GalNAc(a1-3)]Gal(b1-4)GlcNAc(b1-2)Man
# In short: as §1
# [5] = biological target: Fuc(a1-2)[GalNAc(a1-3)]Gal(b1-4)GlcNAc(b1-2)Man(a1-3)[Fuc(a1-2)[GalNAc(a1-3)]Gal(b1-4)GlcNAc(b1-2)Man(a1-6)]Man(b1-4)GlcNAc(b1-4)GlcNAc
# In short: as §1
# [6] = biological target: Fuc(a1-2)[GalNAc(a1-3)]Gal(b1-4)GlcNAc(b1-2)Man(a1-3)[Fuc(a1-2)[GalNAc(a1-3)]Gal(b1-4)GlcNAc(b1-2)Man(a1-6)]Man(b1-4)GlcNAc(b1-4)[Fuc(a1-6)]GlcNAc
# In short: as §1
# [7] = biological target: Fuc(a1-2)[GalNAc(a1-3)]Gal(b1-4)GlcNAc(b1-3)Gal(b1-4)GlcNAc
# In short: as §1
# [8] = biological target: Fuc(a1-2)[GalNAc(a1-3)]Gal(b1-4)GlcNAc(b1-3)Gal(b1-4)GlcNAc(b1-3)Gal(b1-4)GlcNAc
# In short: as §1
# [9] = biological target: Fuc(a1-2)[GalNAc(a1-3)]Gal(b1-4)GlcNAc(b1-3)GalNAc
# In short: as §1
# [10] = biological target: Fuc(a1-2)[GalNAc(a1-3)]Gal(b1-4)GlcNAc(b1-3)[Fuc(a1-2)[GalNAc(a1-3)]Gal(b1-4)GlcNAc(b1-6)]GalNAc
# In short: as §1
# [11] = biological target: Fuc(a1-2)[GalNAc(a1-3)]Gal(b1-4)GlcNAc(b1-6)GalNAc
# In short: as §1
# [12] = biological target: Fuc(a1-2)[GalNAc(a1-3)]Gal(b1-4)[Fuc(a1-3)]GlcNAc
# In short: as §1
# [13] = biological target: Fuc(a1-2)[GalNAc(a1-3)]Gal(b1-4)[Fuc(a1-3)]GlcNAc(b1-3)GalNAc
# In short: as §1
# [14] = biological target: Fuc(a1-2)[GalNAc(a1-4)]Gal(b1-4)GlcNAc
# In short: as §1
# [15] = biological target: Fuc(a1-2)[GalNAc(b1-3)]Gal
# In short: as §1
# Fuc(a1-3)GlcNAc = biological target: Fuc(a1-3)GlcNAc
# In short: as §1
# [16] = biological target: Fuc(a1-3)[Gal(b1-4)]Glc6S
# In short: as §1
# [17] = biological target: Fuc(a1-3)[Gal(b1-4)]GlcNAc
# In short: as §1
# [18] = biological target: Fuc(a1-3)[Gal(b1-4)]GlcNAc(b1-2)Man
# In short: as §1
# [19] = biological target: Fuc(a1-3)[Gal(b1-4)]GlcNAc(b1-2)Man(a1-3)[Fuc(a1-3)[Gal(b1-4)]GlcNAc(b1-2)Man(a1-6)]Man(b1-4)GlcNAc(b1-4)GlcNAc
# In short: as §1
# [20] = biological target: Fuc(a1-3)[Gal(b1-4)]GlcNAc(b1-2)Man(a1-3)[Fuc(a1-3)[Gal(b1-4)]GlcNAc(b1-2)Man(a1-6)]Man(b1-4)GlcNAc(b1-4)[Fuc(a1-6)]GlcNAc
# In short: as §1
# [21] = biological target: Fuc(a1-3)[Gal(b1-4)]GlcNAc(b1-3)Gal(b1-3)[Fuc(a1-4)]GlcNAc
# In short: as §1
# [22] = biological target: Fuc(a1-3)[Gal(b1-4)]GlcNAc(b1-3)GalNAc
# In short: as §1
# [23] = biological target: Fuc(a1-3)[Gal(b1-4)]GlcNAc(b1-4)Gal(b1-4)[Fuc(a1-3)]GlcNAc
# In short: as §1
# [24] = biological target: Fuc(a1-3)[Gal(b1-4)]GlcNAc(b1-4)Gal(b1-4)[Fuc(a1-3)]GlcNAc(b1-4)Gal(b1-4)[Fuc(a1-3)]GlcNAc
# In short: as §1
# [25] = biological target: Fuc(a1-3)[Gal(b1-4)]GlcNAc(b1-6)GalNAc
# In short: as §1
# [26] = biological target: Fuc(a1-3)[Gal(b1-4)]GlcNAc(b1-6)[Gal(b1-3)GlcNAc(b1-3)]Gal(b1-4)Glc
# In short: as §1
# [27] = biological target: Fuc(a1-3)[Gal(b1-4)]GlcNAc6S
# In short: as §1
# [28] = biological target: Fuc(a1-3)[Gal3S(b1-4)]Glc
# In short: as §1
# [29] = biological target: Fuc(a1-3)[Gal3S(b1-4)]GlcNAc
# In short: as §1
# [30] = biological target: Fuc(a1-3)[Gal3S(b1-4)]GlcNAc6S
# In short: as §1
# [31] = biological target: Fuc(a1-3)[GalNAc(b1-4)]GlcNAc
# In short: as §1
# [32] = biological target: Fuc(a1-3)[GalNAc(b1-4)]GlcNAc6S
# In short: as §1
# Fuc(a1-4)GlcNAc = biological target: Fuc(a1-4)GlcNAc
# In short: as §1
# Fuc(b1-3)GlcNAc = biological target: Fuc(b1-3)GlcNAc
# In short: as §1
# Gal(a1-2)Gal = biological target: Gal(a1-2)Gal
# In short: as §1
# Gal(a1-3)Gal = biological target: Gal(a1-3)Gal
# In short: as §1
# Gal(a1-3)Gal(b1-3)GlcNAc = biological target: Gal(a1-3)Gal(b1-3)GlcNAc
# In short: as §1
# [33] = biological target: Gal(a1-3)Gal(b1-3)GlcNAc(b1-2)Man
# In short: as §1
# [34] = biological target: Gal(a1-3)Gal(b1-3)GlcNAc(b1-2)Man(a1-3)[Gal(a1-3)Gal(b1-3)GlcNAc(b1-2)Man(a1-6)]Man(b1-4)GlcNAc(b1-4)GlcNAc
# In short: as §1
# [35] = biological target: Gal(a1-3)Gal(b1-3)GlcNAc(b1-3)GalNAc
# In short: as §1
# [36] = biological target: Gal(a1-3)Gal(b1-3)GlcNAc(b1-6)GalNAc
# In short: as §1
# [37] = biological target: Gal(a1-3)Gal(b1-3)[Fuc(a1-4)]GlcNAc(b1-2)Man(a1-3)[Gal(a1-3)Gal(b1-3)[Fuc(a1-4)]GlcNAc(b1-2)Man(a1-6)]Man(b1-4)GlcNAc(b1-4)GlcNAc
# In short: as §1
# Gal(a1-3)Gal(b1-4)Glc = biological target: Gal(a1-3)Gal(b1-4)Glc
# In short: as §1
# Gal(a1-3)Gal(b1-4)GlcNAc = biological target: Gal(a1-3)Gal(b1-4)GlcNAc
# In short: as §1
binder,measurement,setting,value
"CBM13 2a (Mycobacterium tuberculosum), P64849 (protein) DGPVQLKSRLGDVCLDAPSGSWFSPLVINPCNGTDFQRWNLTDDRQVESVAFPGECVNIGNALWARLQPCVNWISQHWTVQPDGLVKSDLDACLTVLGGPDPGTWVSTRWCDPNAPDQQWDSVPLEHHHHHH",glycan array binding signal (z-score),[1],-0.255
same,glycan array binding signal (z-score),[2],-0.227
same,glycan array binding signal (z-score),[3],-0.27
same,glycan array binding signal (z-score),[4],-0.311
same,glycan array binding signal (z-score),[5],-0.115
same,glycan array binding signal (z-score),[6],-0.121
same,glycan array binding signal (z-score),[7],-0.385
same,glycan array binding signal (z-score),[8],1.95
same,glycan array binding signal (z-score),[9],-0.126
same,glycan array binding signal (z-score),[10],-0.133
same,glycan array binding signal (z-score),[11],-0.303
same,glycan array binding signal (z-score),[12],0.434
same,glycan array binding signal (z-score),[13],-0.037
same,glycan array binding signal (z-score),[14],-0.467
same,glycan array binding signal (z-score),[15],-0.416
same,glycan array binding signal (z-score),Fuc(a1-3)GlcNAc,-0.168
same,glycan array binding signal (z-score),[16],-0.036
same,glycan array binding signal (z-score),[17],-0.325
same,glycan array binding signal (z-score),[18],-0.033
same,glycan array binding signal (z-score),[19],-0.052
same,glycan array binding signal (z-score),[20],-0.043
same,glycan array binding signal (z-score),[21],0.154
same,glycan array binding signal (z-score),[22],-0.227
same,glycan array binding signal (z-score),[23],-0.173
same,glycan array binding signal (z-score),[24],-0.341
same,glycan array binding signal (z-score),[25],0.13
same,glycan array binding signal (z-score),[26],-0.272
same,glycan array binding signal (z-score),[27],-0.247
same,glycan array binding signal (z-score),[28],-0.113
same,glycan array binding signal (z-score),[29],0.314
same,glycan array binding signal (z-score),[30],-0.134
same,glycan array binding signal (z-score),[31],-0.31
same,glycan array binding signal (z-score),[32],-0.217
same,glycan array binding signal (z-score),Fuc(a1-4)GlcNAc,-0.322
same,glycan array binding signal (z-score),Fuc(b1-3)GlcNAc,-0.235
same,glycan array binding signal (z-score),Gal(a1-2)Gal,-0.158
same,glycan array binding signal (z-score),Gal(a1-3)Gal,-0.269
same,glycan array binding signal (z-score),Gal(a1-3)Gal(b1-3)GlcNAc,-0.106
same,glycan array binding signal (z-score),[33],-0.204
same,glycan array binding signal (z-score),[34],-0.07
same,glycan array binding signal (z-score),[35],-0.132
same,glycan array binding signal (z-score),[36],-0.286
same,glycan array binding signal (z-score),[37],0.142
same,glycan array binding signal (z-score),Gal(a1-3)Gal(b1-4)Glc,-0.17
same,glycan array binding signal (z-score),Gal(a1-3)Gal(b1-4)GlcNAc,-0.203
